# From article PMC4336329 (PLoS ONE, 2015)
# The whole screen tested about 310,000 compounds, of which about 2,200 (0.71%) showed an effect of 50% or more. The effect is printed as a negative number. The list shows a part of the results.
# Target: human ether-à-go-go-related gene (hERG) potassium channel (human, UniProt Q12809)
# Assay: primary screen, population patch clamp on CHO cells stably expressing hERG
# Chain of human ether-à-go-go-related gene (hERG) potassium channel (Q12809 whole entry, looked up): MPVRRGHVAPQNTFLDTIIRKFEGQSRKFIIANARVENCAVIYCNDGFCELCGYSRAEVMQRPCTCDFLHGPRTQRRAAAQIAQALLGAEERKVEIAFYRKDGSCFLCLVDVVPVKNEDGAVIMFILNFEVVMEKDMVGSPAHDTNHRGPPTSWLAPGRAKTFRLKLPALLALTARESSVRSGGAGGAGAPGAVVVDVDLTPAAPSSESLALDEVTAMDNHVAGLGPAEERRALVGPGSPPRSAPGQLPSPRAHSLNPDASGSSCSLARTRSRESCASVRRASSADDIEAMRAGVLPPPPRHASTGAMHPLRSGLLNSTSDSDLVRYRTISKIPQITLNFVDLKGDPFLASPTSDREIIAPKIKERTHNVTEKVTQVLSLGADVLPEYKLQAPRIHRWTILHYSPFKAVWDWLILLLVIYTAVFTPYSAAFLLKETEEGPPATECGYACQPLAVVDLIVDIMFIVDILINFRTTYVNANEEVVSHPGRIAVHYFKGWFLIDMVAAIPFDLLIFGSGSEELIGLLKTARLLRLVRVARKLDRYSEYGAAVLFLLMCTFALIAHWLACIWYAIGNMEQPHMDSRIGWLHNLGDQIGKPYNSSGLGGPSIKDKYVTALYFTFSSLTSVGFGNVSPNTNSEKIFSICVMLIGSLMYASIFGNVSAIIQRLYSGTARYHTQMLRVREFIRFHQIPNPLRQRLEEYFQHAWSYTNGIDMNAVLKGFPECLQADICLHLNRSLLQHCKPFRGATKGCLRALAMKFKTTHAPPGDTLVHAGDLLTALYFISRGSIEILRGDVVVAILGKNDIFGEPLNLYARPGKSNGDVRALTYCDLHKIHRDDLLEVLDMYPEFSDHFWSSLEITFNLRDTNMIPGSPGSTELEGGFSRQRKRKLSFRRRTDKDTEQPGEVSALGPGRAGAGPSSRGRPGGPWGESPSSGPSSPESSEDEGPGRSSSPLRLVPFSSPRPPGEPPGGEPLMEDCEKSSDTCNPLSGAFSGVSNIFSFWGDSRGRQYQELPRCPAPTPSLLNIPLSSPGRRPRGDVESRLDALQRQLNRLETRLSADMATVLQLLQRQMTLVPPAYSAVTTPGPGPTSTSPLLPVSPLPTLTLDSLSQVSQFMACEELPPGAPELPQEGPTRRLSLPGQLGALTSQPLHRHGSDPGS
row,Compound,"hERG current change (%, negative = inhibition) at 1uM"
1,COc1ccc(NC(=O)/C(=C\c2ccco2)NC(=O)c2ccco2)cc1,9.91%
2,NC(=S)N/N=C/c1ccc(-c2ccc(SC(F)F)cc2)o1,14.7%
3,CC(C)N(C(=O)CSc1nc2ccccc2n1Cc1ccccc1F)C(C)C,8.46%
4,COc1ccc(OC)c(NC(=O)NC2CCCCCCC2)c1,9.24%
5,COc1ccc(N2C(=O)C3CCCN3C2c2cccs2)cc1 (stereo not shown),12.7%
6,Nc1cc(=O)[nH]c(SCC(=O)NCC2CCCO2)n1 (stereo not shown),8.23%
7,Cc1cccc(C)c1OCc1cc(C(=O)N2CC3C[C@@H]4CC2C[C@H](C3)C4)no1,8.42%
8,C[N+]1(C)C2CC[C@H]1CC(OC(=O)C(CO)c1ccccc1)C2.O=[N+]([O-])O (stereo partly shown),4.7%
9,Cc1cc(Cl)ccc1OCC(=O)OC(C)C(=O)NC(N)=O (stereo not shown),4.91%
10,CCCCCc1c(C)nc(N2CCN(Cc3ccc4c(c3)OCO4)CC2)[nH]c1=O,-1.95%
11,CNCc1c(OCc2ccccc2)ccc2ccccc12.Cl,-0.938%
12,CC(C)(C)C1CCc2sc(-c3nnc(CCl)o3)cc2C1 (stereo not shown),16.8%
13,O=C(Nc1cnccn1)c1cccnc1,4.49%
14,Cc1cccc(C(=O)NNC(=O)c2ccc(Br)cc2)c1,5.03%
15,COc1ccccc1N1CCN(C(=O)c2cc(=O)c3c(C)cc(C)cc3o2)CC1,21.3%
16,CC(C)[C@@H](C(=O)NCC1CCC(C(=O)O)CC1)n1nnc2ccccc2c1=O (stereo partly shown),12.9%
17,Cc1ccn2cc(CSc3ccccc3N)nc2c1,-9.77%
18,CCOC(=O)c1ccc(NC(=O)COc2ccc(S(=O)(=O)NC(C)C)cc2)cc1,12.5%
19,COc1cc(CN2CCN(C(=O)CC(C)C)CC2)cc(OC)c1OC,-0.807%
20,COc1ccccc1OCC(=O)Nc1ccc2c(c1)C(=O)N(CC1CCCO1)C2=O (stereo not shown),3.21%
21,COc1ccc(N2CCN(C(=O)CCc3ccccc3OC)CC2)cc1,7.73%
22,CCN(CC)C(=O)CSc1nc2cccnc2n1-c1ccccc1OC,11.5%

row,Compound,"hERG current change (%, negative = inhibition) at 1uM"
1,Cc1ccccc1-c1nc(CS(=O)CC(=O)NCc2ccccc2)c(C)o1 (stereo not shown),2.19%
2,COc1cc(/C=N\NC(C)=O)ccc1OC/C=C/c1ccccc1,13.9%
3,O=C(NC1CC1)C1=C[C@@H](c2coc3ccccc3c2=O)C[C@@H](OCCCCO)O1,9.99%
4,N#Cc1c(-c2cccs2)nc(SCC(=O)c2cccs2)[nH]c1=O,-2.12%
5,CCCCn1c(N)c(N(CC(C)C)C(=O)C2CCN(C(=O)c3ccc(F)cc3)CC2)c(=O)[nH]c1=O,0.272%
6,COC(CNS(=O)(=O)c1ccc(S(=O)(=O)N2CCCC2)cc1)OC,-5.61%
7,CCS(=O)(=O)NCc1csc(C)n1,8.06%
8,O=C(CN(c1ccccc1F)S(=O)(=O)c1ccccc1)Nc1ccc2c(c1)OCCO2,15.2%
9,CCCCn1c(SCC(=O)Nc2cc(C)on2)nnc1-c1ccncc1,9.23%
10,CCc1cc2cc(C)c(C)cc2nc1SCC(=O)Nc1cc(C)on1,9.93%
11,COc1ccc(NC(C)=O)cc1NC(=O)c1cccc(S(=O)(=O)N2CCN(Cc3ccccc3)CC2)c1,7.45%
12,O=C(NCCc1ccccc1)c1ccc(NC2=NC3CS(=O)(=O)CC3S2)cc1 (stereo not shown),5.56%
13,O=C(Nc1ccnn1C1CCN(Cc2cccc(OCCO)c2)CC1)c1cccc(F)c1,9.06%
14,CN(C)c1cc[n+](CC(=O)Nc2ccccc2C(F)(F)F)cc1.[Cl-],11.6%
15,O=C1CCCN1CCCNC(=S)Nc1ccc(F)c(Cl)c1,5.52%
16,CN(C)c1cccc(C(=O)N(Cc2ccccc2)Cc2ccccc2)c1,8.83%
17,COc1ccc(NC(=O)CC2C(=O)N(c3cccc(OC)c3)C(=O)N2Cc2ccco2)cc1 (stereo not shown),-4.4%
18,CCN1C(=NCc2ccc(OC)cc2)N[C@@H](CCc2ccccc2)[C@H](C(=O)NCc2ccc(OC)cc2)[C@H]1C,-16.8%
19,CSc1ccc(CNc2ccc(C)cc2)cc1,12.8%
20,CNC(=O)N(O)C1N(C)C(=O)N(Cc2ccccc2)C1(C)C (stereo not shown),3.57%
21,C/C(=N\NC(=O)c1cccs1)c1cccnc1,5.86%
22,COc1cccc(-c2cc(C(=O)N/N=C/c3ccco3)c3ccccc3n2)c1,14%

row,Compound,"hERG current change (%, negative = inhibition) at 1uM"
1,O=c1ccc2ccc(O[C@@H]3O[C@H](CO[C@@H]4OC[C@](O)(CO)[C@H]4O)[C@@H](O)[C@H](O)[C@H]3O)cc2o1,15.2%
2,Cc1cc(/C=C2/NC(=S)NC2=O)c(C)n1-c1cccnc1,15.2%
3,COCCNC(=S)N/N=C(\C)c1ccccc1OC,9.12%
4,O=C(c1cccc([N+](=O)[O-])c1)N1CCN(c2n[nH]c(=O)[nH]c2=O)CC1,7.2%
5,C[C@@H]1C[C@H](O)c2cc(Cl)ccc2N1,-1.49%
6,COc1ccc(-c2cn[nH]c2-c2ccc(OCc3ccc([N+](=O)[O-])cc3)cc2O)cc1OC,2.71%
7,Cc1ccc(NC(=O)CC2S/C(=N/N=C3\CCCc4ccccc43)NC2=O)cc1 (stereo not shown),15.7%
8,COc1ccc(-c2nn(-c3ccccc3)cc2/C=N/NC(=O)c2ccc3c(c2)OCO3)cc1,8.21%
9,O=C(COC(=O)C1CCN(S(=O)(=O)c2cccs2)CC1)c1ccc2c(c1)OCCO2,13.7%
10,Cc1n[nH]c(=O)nc1NCC1CCCO1 (stereo not shown),-15.9%
11,COc1ccc(NC(=O)Nc2cc(F)ccc2C)cc1,21.5%
12,CN(C(=O)COC(=O)c1ccc(Cl)nc1)C1CCS(=O)(=O)C1 (stereo not shown),3.72%
13,Cc1cccnc1CN1CCN(C(=O)c2cc(COc3ccc4ncccc4c3)on2)CC1,16.1%
14,O=C(CN(CCO)c1ccccc1)Nc1ccc(Cl)c(S(=O)(=O)N2CCOCC2)c1,5.98%
15,COc1cc(C2Nc3cccc4cccc(c34)N2)ccc1OC(C)=O,15%
16,NNC(=O)CCC(=O)Nc1ccccc1,11.1%
17,COc1ccc(C(=O)Nc2cc(C)nn2-c2nc3ccccc3[nH]2)c(OC)c1,5.37%
18,O=C(NNC(=S)NC(=O)c1cccnc1)c1ccc(F)cc1,12.6%
19,O=Cc1cccn1-c1c(C(=O)O)cnn1-c1ccccc1,27.8%
20,COc1cccc2c(=O)n(CC(=O)Nc3ccc(F)cc3F)ccc12,8.04%
21,CCOC(=O)N=Nc1c(O)n(CC)c2ccccc12,8.82%
22,Cc1cc2c(c(SCC(=O)N(C)c3ccccc3)n1)C(=O)OC2,14.6%

row,Compound,"hERG current change (%, negative = inhibition) at 1uM"
1,CSc1nnc(-c2ccccc2)o1,-2.44%
2,CSCC[C@H](NC(=O)C1CCC(CNC(=O)[C@@H]2CCCN2)CC1)C(=O)O.Cl (stereo partly shown),3.34%
3,COc1ccc(C(=O)NNC2CC(=O)N(Cc3ccccc3)C2=O)cc1OC (stereo not shown),1.56%
4,COc1ccc(CCN(C)C(=O)c2c(C)nn(-c3ccccc3)c2C)cc1OC,13.9%
5,Cc1nnc(C)n1/N=C/c1ccccn1,-14.6%
6,COc1ccccc1CNC(=O)COC(=O)c1cc(=O)[nH]c2ccccc12,4.78%
7,CC(=O)c1c(C)nc(-c2ccc(OCC(=O)Nc3ccccc3)cc2)n1O,19.2%
8,C=CCn1c(SCC(=O)N2CCOCC2)nc(O)c(Cc2ccccc2)c1=O,11.8%
9,O=C(CSc1nnc(COc2ccc(Cl)cc2)o1)OC1CCCCC1,0.966%
10,Cc1ccc(OCC(=O)N2CCCCCC2)c(C)c1,8.22%
11,COc1ccc(N2CCN(C(CNS(=O)(=O)c3cc(F)ccc3F)c3cccnc3)CC2)cc1 (stereo not shown),-18.7%
12,O=C(NCc1ccco1)c1cc(S(=O)(=O)N2CCOCC2)ccc1Cl,-14.1%
13,O=C(NCc1ccccn1)c1ccc(NC(=O)c2ccco2)cc1,0.77%
14,CSc1ccc(CN2CCN(C3CCCC3)C(CCO)C2)cc1 (stereo not shown),-8.56%
15,COc1ccc(CCNc2ccc(S(=O)(=O)N3CCCC3)cc2[N+](=O)[O-])cc1,8.04%
16,Cc1nc(C(=O)NNC(=O)c2ccc(C(F)(F)F)cc2)cs1,13.1%
17,CC(C)CC(=O)NNC(=S)Nc1ccc(S(N)(=O)=O)cc1,16.1%
18,CC(C)(Sc1cc(C(C)(C)C)c(O)c(C(C)(C)C)c1)Sc1cc(C(C)(C)C)c(O)c(C(C)(C)C)c1,18.8%
19,COc1cccc(CN(C)CC(O)COC(c2ccccc2)c2ccccc2C)c1 (stereo not shown),-8.56%
20,NC(=O)CSc1ncc(-c2ccccc2)[nH]1,11.4%
21,CC(=O)Nc1ccc(S(=O)(=O)NCCCN2CCN(Cc3ccccc3)CC2)cc1Cl,-5.81%
22,CC(=O)Nc1ccc(Nc2nc(C(F)(F)F)nc3c2nnn3Cc2ccccc2Cl)cc1,14.1%
